The values below come from the supplement of paper PMC10126150.

Sequences with one replicate were seen in a single cluster, so their values are uncertain.

This data set has as its system ATP. Briefly: switch fluorescence ratio, 500 uM ATP over buffer (Cy3 cluster intensity, sum of 5 cycles each) (fold (ratio)); higher = stronger signal-on switching upon ATP binding; sequences stand for … in TCGTCGGCAGCGTCAGATGTGTATAAGAGACAGTTTTTTTTTTTTTTTTTTTTTTTTT…TC. The following applies: aptamer strand: ATP DNA aptamer (quencher-CACCTGGGGGAGTATTGCGGAGGAAGG + anchor), 100 nM annealed; ATP concentration: 500 uM; one replicate. The gist of the method: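 Switching-strand clusters labelled with Cy3 on a modified Illumina MiSeq flow-cell were annealed to 100 nM quencher-labelled ATP aptamer, imaged in selection buffer, and re-imaged after 15 min with 500 uM ATP at 22 °C. This was done over five cycles with NaOH stripping and re-annealing in between. The fluorescence ratio is summed target-cycle over summed buffer-cycle Cy3 intensity per cluster, averaged per switch-domain sequence, excluding clusters outside 100-1000 RFU.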
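Note: ATP exposure 15 min at 22 °C before imaging.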

Consider CTCCTTTCGT, for which the switch fluorescence ratio amounted to 1.05.

For AGGATAATGC, the switch fluorescence ratio was 1.05.

Consider TAAGTAACTT, for which the switch fluorescence ratio stood at 1.01.

For TTGAACTCCG, the switch fluorescence ratio turned out to be 1.42.

As to TAGACTACCA, the switch fluorescence ratio was determined as 1.02.

Take GGATGTATCA: the switch fluorescence ratio amounted to 0.951.

Regarding ATCATTTGTA, the switch fluorescence ratio is 0.995.

As to GTCGTGGAGT, the switch fluorescence ratio amounted to 1.1.

As for AAGGGGTTTA, the switch fluorescence ratio was determined as 1.03.

In the case of TTCCATTGGA, the switch fluorescence ratio was determined as 1.05.

As to TGACAGTATA, the switch fluorescence ratio was 1.02.

Take GCAGTGCAGG: the switch fluorescence ratio worked out at 1.04.

On to TTTACTCGTA, for which the switch fluorescence ratio came to 0.965.

As for CCGATGACGT, the switch fluorescence ratio amounted to 1.06.

Regarding TAGAGAGTAA, the switch fluorescence ratio came out at 1.02.

Regarding AATACCCGCC, the switch fluorescence ratio was found to be 1.31.

In the case of ACCAGAGTGA, the switch fluorescence ratio was 1.18.

GTTTTCCAGG: the switch fluorescence ratio was 1.2.

With ATCAGCAAAT, the switch fluorescence ratio came to 1.35.

Take GGCTCACCTC: the switch fluorescence ratio was 0.992.

Turning to AGGAACCGGG, the switch fluorescence ratio was 1.

For the sequence AATGTCATGC, the switch fluorescence ratio stood at 0.944.

GATGAGGTGA: the switch fluorescence ratio came to 1.02.

With AGTCAGCAGA, the switch fluorescence ratio came to 1.02.

As to CACGGATCCC, the switch fluorescence ratio came to 0.986.

For the sequence GATTTAATCA, the switch fluorescence ratio came out at 1.03.

Take CTGCCAGTCA: the switch fluorescence ratio was 1.05.

With TCTTATGAGG, the switch fluorescence ratio stood at 1.02.

On to TCCAAGAAGA, for which the switch fluorescence ratio was 1.01.

Consider AAATCTGCGC, for which the switch fluorescence ratio was found to be 1.05.

Consider ACCAGTTTGT, for which the switch fluorescence ratio stood at 1.03.

TAGGAGGAT: the switch fluorescence ratio stood at 0.991.

Regarding GATTCGGGGG, the switch fluorescence ratio was 0.996.

As to AGCTGAAGAG, the switch fluorescence ratio was 1.02.

Take TGGCATAAGC: the switch fluorescence ratio was 1.01.

Consider GAGGGTGTG, for which the switch fluorescence ratio came out at 1.05.

GAGTAGCCAG: the switch fluorescence ratio amounted to 1.02.

In the case of TCTATTGTGA, the switch fluorescence ratio turned out to be 0.989.

Turning to GATGTGGAGA, the switch fluorescence ratio worked out at 1.05.

With TGTAGCTG, the switch fluorescence ratio turned out to be 1.07.

GAGTATCGAT: the switch fluorescence ratio was determined as 0.995.

AAGCAATTCG: the switch fluorescence ratio was found to be 2.

Consider ACGTGTAGTT, for which the switch fluorescence ratio turned out to be 1.02.

On to AGTTTCCACG, for which the switch fluorescence ratio came to 0.966.

Consider TTGGCACGTA, for which the switch fluorescence ratio amounted to 0.984.

AATTATGAGA: the switch fluorescence ratio was found to be 0.989.

With AGAGGACTCG, the switch fluorescence ratio is 1.

Turning to TGAGTTGGTG, the switch fluorescence ratio amounted to 1.01.

Turning to ATCGAGGTGC, the switch fluorescence ratio turned out to be 1.07.

On to AAAGCACACC, for which the switch fluorescence ratio came to 1.32.

For CGCCTTTTAA, the switch fluorescence ratio came out at 1.

With GGCATTGACG, the switch fluorescence ratio is 1.12.

On to TTCCAGAACT, for which the switch fluorescence ratio is 0.987.

On to CTATAGCATA, for which the switch fluorescence ratio was found to be 2.24.

As to CTTGTTGTCA, the switch fluorescence ratio amounted to 0.973.

In the case of TTTGACGCA, the switch fluorescence ratio was found to be 1.65.

CGTTGCGGC: the switch fluorescence ratio was 1.1.

As to TTCAAAACTA, the switch fluorescence ratio worked out at 1.05.

With GCAGTTTCGG, the switch fluorescence ratio was determined as 0.973.

Take AGACTGGCCA: the switch fluorescence ratio was determined as 0.977.

As for ATCATGCTCT, the switch fluorescence ratio stood at 0.962.

Turning to CAGACTTCTG, the switch fluorescence ratio turned out to be 0.967.

Take AGAACAAACG: the switch fluorescence ratio was determined as 1.19.

With TGATAGTGCC, the switch fluorescence ratio worked out at 1.04.

Take CTGGGATACT: the switch fluorescence ratio was determined as 1.65.

In the case of AAACGTGAAA, the switch fluorescence ratio was found to be 1.01.

In the case of GCTATCTTG, the switch fluorescence ratio worked out at 0.985.

As to ATGCACAGCT, the switch fluorescence ratio came out at 1.01.

On to GCTGAAATTC, for which the switch fluorescence ratio stood at 1.

On to TAGTGAACGG, for which the switch fluorescence ratio is 1.05.

Consider CTCCGTGAAA, for which the switch fluorescence ratio worked out at 3.31.

With GACGACAAAA, the switch fluorescence ratio came out at 1.13.

For CAAAGGTTAT, the switch fluorescence ratio stood at 0.978.

With TTTTTGGAAG, the switch fluorescence ratio was 0.985.

Consider AGCGTGAAGA, for which the switch fluorescence ratio came out at 0.993.

For the sequence TTCCTGGCGT, the switch fluorescence ratio came out at 1.01.

On to TTCAGAGTAA, for which the switch fluorescence ratio amounted to 0.994.

Regarding AGGGCGTG, the switch fluorescence ratio was 0.989.

For the sequence AATATCTGGG, the switch fluorescence ratio turned out to be 0.996.

With ACGTGGCATG, the switch fluorescence ratio is 1.01.

With TCCCTATGTC, the switch fluorescence ratio amounted to 1.05.

As to TCGCCTGACG, the switch fluorescence ratio was 1.06.

Turning to AAAGTGACCC, the switch fluorescence ratio is 1.26.

For the sequence ATAGCAGAGT, the switch fluorescence ratio amounted to 0.975.

For the sequence TAGTTATAGG, the switch fluorescence ratio was 1.

Turning to TGGAGTCAC, the switch fluorescence ratio came out at 1.05.

Turning to TCAAAAACCG, the switch fluorescence ratio came to 1.22.

With AAAACACCCC, the switch fluorescence ratio came to 1.22.

As to GATAAAAGTG, the switch fluorescence ratio worked out at 0.946.

Regarding ATAATCGCAA, the switch fluorescence ratio stood at 3.83.

With AACCGGCTCA, the switch fluorescence ratio stood at 1.04.

For GTAGTGGGCG, the switch fluorescence ratio is 0.993.

Turning to TCGTTGTACT, the switch fluorescence ratio came out at 1.07.

Consider GCGTCCGCTT, for which the switch fluorescence ratio was 1.42.

On to GGAATAGGTA, for which the switch fluorescence ratio turned out to be 1.02.

With AGTGTTTCGG, the switch fluorescence ratio was determined as 0.947.

With AGCCATAAGC, the switch fluorescence ratio was found to be 1.01.

As for TTTCATAGCT, the switch fluorescence ratio was 1.03.

As to GTTGGTCTG, the switch fluorescence ratio worked out at 1.04.

Consider AGCGGAATTC, for which the switch fluorescence ratio was 0.988.

In the case of CGAAGACTA, the switch fluorescence ratio was determined as 1.01.

With GTGTGCGGGC, the switch fluorescence ratio turned out to be 1.14.

Take GGCGAAAAAG: the switch fluorescence ratio was 0.982.

For the sequence TCAGTACTGC, the switch fluorescence ratio turned out to be 1.05.

Regarding CACGATTTGT, the switch fluorescence ratio stood at 1.

Turning to TAGTGCTGGA, the switch fluorescence ratio was determined as 0.939.

With TTTTGCGTTG, the switch fluorescence ratio came to 1.02.

Consider GCTATAATGG, for which the switch fluorescence ratio turned out to be 0.979.

As for CGAAATAGGA, the switch fluorescence ratio was 1.07.

In the case of CTAAAAGGCA, the switch fluorescence ratio came to 1.04.

In the case of AGGTCGCGCC, the switch fluorescence ratio is 1.01.

Turning to CTCGGGACCC, the switch fluorescence ratio was 0.981.

In the case of GCAGAAATTT, the switch fluorescence ratio is 0.973.

With TAGGGATACC, the switch fluorescence ratio came to 1.3.

Regarding TCTTGCAA, the switch fluorescence ratio was determined as 2.64.

As to AACAGACTGT, the switch fluorescence ratio came to 0.929.

In the case of AGATCAAGTC, the switch fluorescence ratio came out at 0.993.

CCCCAATGTT: the switch fluorescence ratio worked out at 1.11.

As to CTCCCCACCC, the switch fluorescence ratio turned out to be 1.3.

In the case of AAAGGAACGA, the switch fluorescence ratio was 0.954.
